# Assay results as given in the supplement of paper PMC8728848.
# Some of the results follow.
# B1: SialidaseA (Arthrobacter ureafaciens) (protein)
# chain: MRSNSTSAPSLVRRAATGVLTCAVSIGLLAGLGLPAQAAPTPPNSPTLPPGSFSETNLAADRTAANFFYRIPALTYLGNDVVLAAWDGRPGSAADAPNPNSIVQRRSTDGGKTWGPVQVIAAGHVADASGPRYGYSDPSYIYDAEANKVFAFFVYSKDQGFGGSQFGNDDADRNVISSAVIESSDAGVTWSQPRLITSVTKPGTSKTNPAAGDVRSNFASSGEGIQLKYGPHKGRLIQQYAGDVRQADGSNKIQAYSVYSDDHGVTWHKGANVGDRMDENKTVELSDGRVLLNSRDNANRGYRKVAVSTDGGATYGPVSQDTELPDPANNGAIARMFPNAAQGSADAKKLIFTNANSKTGRENVSARVSCDDGETWPGVRTIRSGFSAYSTVTRLADGKFGVLYEGNYTDNMPFATFDDAWLNYVCAPLAVPAVNIAPSATQEVPVTVTNQEATTLSGATATVYTPSGWSATTVPVPDVAPGASVTVTVALTAPADASGPRSLNAAFTTADGRVSQFTFTATTPVAPQVGLTITGSAPARDVAANPYQAGDVLGYTLNVKSTANVAANSVPLTGTFDSGFLPPAAPNCRYNNLAAGASYNCTTAKHTITAADMERGYFVPEATFSITSTTTPSLTKTVQFTGAAVALRDGLISADISGARTDVGRDLATRPYAAGELVPYAFTVKNTSPFVEQVVPTAGNFSPFLPAGAGNCRYLSLPAGQSYECATPRHAVTAEEVEQGFFVPDTTWEVSAAGQSTRTYRINGGEVDLLVRDAALSATVVAEWKDADGDRFASAGDPVTFTYTVGNAGNVALTGLEAPDAGISLPFLAPGDTATATREHVLTAADVAGGSLAASAFEATARNGSKEVTATAEGQPLELKVQPAQPSKEPELTVQDLEDQTPPFDLGTAFKYRTGQKVSLAGLEYGQWYYVYLNKTGYRLGWMFPTTGDTVEFILPPEVRNGRDDVVVLDKDGRRVSFDRLQVTPKGEKI
# Tests used:
# Experiment in all cases: glycan array binding signal (z-score within array); higher = stronger binding
# Conditions in all cases: glycan notation: IUPAC condensed, linker removed
# [1] = target: Gal(b1-4)Glc
# Procedure, shortened: (§1)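 Glycan array data were curated from 3228 arrays in the Consortium for Functional Glycomics database and kept only where the protein sequence was available. Glycan names were converted to IUPAC-condensed notation, and columns mapping to the same glycan were averaged. The binding signal is a within-array Z-score, averaged across arrays of the same protein sequence at different concentrations or buffers and across linkers. Negative Z-scores can be read as non-binding.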
# [2] = target: Gal(b1-4)Glc6S
# Procedure, shortened: as §1
# [3] = target: Gal(b1-4)GlcNAc
# Procedure, shortened: as §1
# [4] = target: Gal(b1-4)GlcNAc(a1-6)Gal(b1-4)GlcNAc
# Procedure, shortened: as §1
# [5] = target: Gal(b1-4)GlcNAc(b1-2)Man
# Procedure, shortened: as §1
# [6] = target: Gal(b1-4)GlcNAc(b1-2)Man(a1-3)Man(b1-4)GlcNAc(b1-4)GlcNAc
# Procedure, shortened: as §1
# [7] = target: Gal(b1-4)GlcNAc(b1-2)Man(a1-3)[Gal(b1-4)GlcNAc(b1-2)Man(a1-6)]Man(b1-4)GlcNAc(b1-4)GlcNAc
# Procedure, shortened: as §1
# [8] = target: Gal(b1-4)GlcNAc(b1-2)Man(a1-3)[Gal(b1-4)GlcNAc(b1-2)Man(a1-6)]Man(b1-4)GlcNAc(b1-4)[Fuc(a1-6)]GlcNAc
# Procedure, shortened: as §1
# [9] = target: Gal(b1-4)GlcNAc(b1-2)Man(a1-3)[Gal(b1-4)GlcNAc(b1-2)Man(a1-6)][Gal(b1-4)GlcNAc(b1-4)]Man(b1-4)GlcNAc(b1-4)[Fuc(a1-6)]GlcNAc
# Procedure, shortened: as §1
# [10] = target: Gal(b1-4)GlcNAc(b1-2)Man(a1-3)[Gal(b1-4)GlcNAc(b1-2)Man(a1-6)][GlcNAc(b1-4)]Man(b1-4)GlcNAc(b1-4)[Fuc(a1-6)]GlcNAc
# Procedure, shortened: as §1
# [11] = target: Gal(b1-4)GlcNAc(b1-2)Man(a1-3)[GlcNAc(b1-2)Man(a1-6)]Man(b1-4)GlcNAc(b1-4)GlcNAc
# Procedure, shortened: as §1
# [12] = target: Gal(b1-4)GlcNAc(b1-2)Man(a1-3)[GlcNAc(b1-4)][Gal(b1-4)GlcNAc(b1-2)Man(a1-6)]Man(b1-4)GlcNAc(b1-4)GlcNAc
# Procedure, shortened: as §1
# [13] = target: Gal(b1-4)GlcNAc(b1-2)Man(a1-3)[Man(a1-6)]Man(b1-4)GlcNAc(b1-4)GlcNAc
# Procedure, shortened: as §1
# [14] = target: Gal(b1-4)GlcNAc(b1-2)Man(a1-6)Man(b1-4)GlcNAc(b1-4)GlcNAc
# Procedure, shortened: as §1
# [15] = target: Gal(b1-4)GlcNAc(b1-2)Man(a1-6)[GlcNAc(b1-2)Man(a1-3)]Man(b1-4)GlcNAc(b1-4)GlcNAc
# Procedure, shortened: as §1
# [16] = target: Gal(b1-4)GlcNAc(b1-2)Man(a1-6)[Man(a1-3)]Man(b1-4)GlcNAc(b1-4)GlcNAc
# Procedure, shortened: as §1
# [17] = target: Gal(b1-4)GlcNAc(b1-2)[Gal(b1-4)GlcNAc(b1-4)]Man(a1-3)[Gal(b1-4)GlcNAc(b1-2)Man(a1-6)]Man(b1-4)GlcNAc(b1-4)GlcNAc
# Procedure, shortened: as §1
# [18] = target: Gal(b1-4)GlcNAc(b1-2)[Gal(b1-4)GlcNAc(b1-4)]Man(a1-3)[Gal(b1-4)GlcNAc(b1-2)[Gal(b1-4)GlcNAc(b1-6)]Man(a1-6)]Man(b1-4)GlcNAc(b1-4)GlcNAc
# Procedure, shortened: as §1
# [19] = target: Gal(b1-4)GlcNAc(b1-2)[Gal(b1-4)GlcNAc(b1-4)]Man(a1-3)[GlcNAc(b1-4)][Gal(b1-4)GlcNAc(b1-2)Man(a1-6)]Man(b1-4)GlcNAc(b1-4)GlcNAc
# Procedure, shortened: as §1
# [20] = target: Gal(b1-4)GlcNAc(b1-2)[Gal(b1-4)GlcNAc(b1-4)]Man(a1-3)[GlcNAc(b1-4)][Gal(b1-4)GlcNAc(b1-2)[Gal(b1-4)GlcNAc(b1-6)]Man(a1-6)]Man(b1-4)GlcNAc(b1-4)GlcNAc
# Procedure, shortened: as §1
# [21] = target: Gal(b1-4)GlcNAc(b1-2)[Gal(b1-4)GlcNAc(b1-6)]Man(a1-6)[Gal(b1-4)GlcNAc(b1-2)Man(a1-3)]Man(b1-4)GlcNAc(b1-4)GlcNAc
# Procedure, shortened: as §1
# [22] = target: Gal(b1-4)GlcNAc(b1-2)[Gal(b1-4)GlcNAc(b1-6)]Man(a1-6)[Gal(b1-4)GlcNAc(b1-2)Man(a1-3)]Man(b1-4)GlcNAc(b1-4)[Fuc(a1-6)]GlcNAc
# Procedure, shortened: as §1
# [23] = target: Gal(b1-4)GlcNAc(b1-2)[Gal(b1-4)GlcNAc(b1-6)]Man(a1-6)[GlcNAc(b1-4)][Gal(b1-4)GlcNAc(b1-2)Man(a1-3)]Man(b1-4)GlcNAc(b1-4)GlcNAc
# Procedure, shortened: as §1
# [24] = target: Gal(b1-4)GlcNAc(b1-2)[Gal(b1-4)GlcNAc(b1-6)]Man(a1-6)[GlcNAc(b1-4)][Gal(b1-4)GlcNAc(b1-2)[Gal(b1-4)GlcNAc(b1-4)]Man(a1-3)]Man(b1-4)GlcNAc(b1-4)[Fuc(a1-6)]GlcNAc
# Procedure, shortened: as §1
# [25] = target: Gal(b1-4)GlcNAc(b1-3)Gal(b1-3)GalNAc
# Procedure, shortened: as §1
# [26] = target: Gal(b1-4)GlcNAc(b1-3)Gal(b1-3)GlcNAc
# Procedure, shortened: as §1
# [27] = target: Gal(b1-4)GlcNAc(b1-3)Gal(b1-4)Glc
# Procedure, shortened: as §1
# [28] = target: Gal(b1-4)GlcNAc(b1-3)Gal(b1-4)GlcNAc
# Procedure, shortened: as §1
# [29] = target: Gal(b1-4)GlcNAc(b1-3)Gal(b1-4)GlcNAc(b1-2)Man(a1-3)[Gal(b1-4)GlcNAc(b1-3)Gal(b1-4)GlcNAc(b1-2)Man(a1-6)]Man(b1-4)GlcNAc(b1-4)GlcNAc
# Procedure, shortened: as §1
# [30] = target: Gal(b1-4)GlcNAc(b1-3)Gal(b1-4)GlcNAc(b1-2)Man(a1-3)[Gal(b1-4)GlcNAc(b1-3)Gal(b1-4)GlcNAc(b1-2)Man(a1-6)]Man(b1-4)GlcNAc(b1-4)[Fuc(a1-6)]GlcNAc
# Procedure, shortened: as §1
binder,measurement,setting,value
B1,glycan array binding signal (z-score),[1],-0.712
same,glycan array binding signal (z-score),[2],-0.594
same,glycan array binding signal (z-score),[3],-0.624
same,glycan array binding signal (z-score),[4],-0.669
same,glycan array binding signal (z-score),[5],-0.078
same,glycan array binding signal (z-score),[6],-0.556
same,glycan array binding signal (z-score),[7],-0.544
same,glycan array binding signal (z-score),[8],-0.503
same,glycan array binding signal (z-score),[9],-0.789
same,glycan array binding signal (z-score),[10],-0.629
same,glycan array binding signal (z-score),[11],-0.69
same,glycan array binding signal (z-score),[12],-0.598
same,glycan array binding signal (z-score),[13],-0.483
same,glycan array binding signal (z-score),[14],-0.663
same,glycan array binding signal (z-score),[15],-0.153
same,glycan array binding signal (z-score),[16],-0.247
same,glycan array binding signal (z-score),[17],-0.692
same,glycan array binding signal (z-score),[18],-0.623
same,glycan array binding signal (z-score),[19],-0.782
same,glycan array binding signal (z-score),[20],-0.522
same,glycan array binding signal (z-score),[21],-0.46
same,glycan array binding signal (z-score),[22],0.354
same,glycan array binding signal (z-score),[23],-0.526
same,glycan array binding signal (z-score),[24],-0.671
same,glycan array binding signal (z-score),[25],-0.734
same,glycan array binding signal (z-score),[26],-0.621
same,glycan array binding signal (z-score),[27],-0.525
same,glycan array binding signal (z-score),[28],-0.692
same,glycan array binding signal (z-score),[29],0.856
same,glycan array binding signal (z-score),[30],0.648
